PubChem BioAssay AID624417 (National Center for Advancing Translational Sciences (NCATS), 2012)
The whole screen tested about 410,000 compounds, of which about 6,400 (1.6%) were called active. This list was built around the results that the source calls inconclusive (neither active nor inactive); the mix of calls is not that of the screen. Calls follow the shape of the dose curve; as a rule, active = well fitted inhibition curve with a large enough effect; inconclusive = small, poorly fitted or top-dose-only effect; inactive = no such curve, though single readings can be large or run the other way. Potencies of inconclusive entries are left out as doubtful fits.
Also: nearly all actives have a fitted effect of over 55% in size.
Potency is read from the fitted curve at half-maximal effect; tags tell the direction and shape of the fitted curve.

What follows are molecules tested against Glucagon-like peptide 1 receptor (Homo sapiens) (UniProt P43220) (assay: qHTS of GLP-1 Receptor Inverse Agonists (Inhibition Mode)). Details: HEK293 GLP-1R CRE-luciferase, luminescence, 24 h; Potency: GLP-1R form is constitutively active unless noted; series mostly up to 38.3 µM.
Sequence of UniProt P43220 (P43220 whole entry, looked up): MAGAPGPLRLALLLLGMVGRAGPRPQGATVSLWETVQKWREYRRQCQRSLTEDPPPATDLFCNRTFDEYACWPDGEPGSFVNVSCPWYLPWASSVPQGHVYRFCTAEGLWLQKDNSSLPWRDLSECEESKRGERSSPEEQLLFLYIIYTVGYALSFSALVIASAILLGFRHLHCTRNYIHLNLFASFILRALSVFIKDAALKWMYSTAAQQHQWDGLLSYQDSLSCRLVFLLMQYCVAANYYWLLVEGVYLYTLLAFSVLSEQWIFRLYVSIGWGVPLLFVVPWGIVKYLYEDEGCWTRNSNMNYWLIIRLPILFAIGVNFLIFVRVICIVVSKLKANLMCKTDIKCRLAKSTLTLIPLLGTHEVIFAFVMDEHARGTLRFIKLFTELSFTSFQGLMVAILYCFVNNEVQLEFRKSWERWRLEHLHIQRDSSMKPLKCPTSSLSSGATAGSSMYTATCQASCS
Method in brief: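 Stable HEK293 clone (constitutively active GLP-1R + cAMP-response luciferase); 200 cells/uL plated, 12 h pre-culture, compound 24 hr, 37 deg C/5% CO2; detection reagent 12 min RT; luminescence.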
For Cc1ccccc1-n1c(-c2ccoc2)nc2ccccc2c1=O, the Potency was inconclusive [inhibitor, partial curve, poor fit].
COC(=O)C1C(O)C(C)C(O)C(C)/C=C\C=C(/C)C(=O)Nc2c(C)c(OC(C)=O)c3c(c2O)C(=O)C(C)=C2OCOC(=C23)/C(C)=C/C(C)(O)C(O)C(C)C1O (centres undefined) was tested, and the Potency was “inactive”.
For N#Cc1ccccc1Cn1cc(C(=O)c2ccccc2F)c2ccccc21, the Potency was inconclusive [inhibitor, partial curve, poor fit].
For CCCCCCN=C(CC)c1c(O)n(CCCC)c(=O)[nH]c1=O, the Potency was inconclusive [inhibitor, single point].
With c1ccc2c(N3CCNCC3)cccc2c1 the Potency was inconclusive [inhibitor, partial curve, poor fit].
With Cc1ccc(-n2c(/C=C/c3cccs3)nc3ccccc3c2=O)cc1C the Potency was inconclusive [inhibitor, partial curve, poor fit].
In the case of COC(=O)C1=C(c2ccc(Cl)c(C(F)(F)F)c2)C[C@@H]2CC[C@H]1N2C, the Potency is reported as inconclusive [inhibitor, single point].
CCCNC(=O)N1[C@H]2CC[C@@H]1C(C(=O)OC)=C(c1ccc(F)cc1OCc1ccccc1)C2 was tested, and the Potency was inconclusive [inhibitor, single point].
With c1ccc(C(OCCN2CCN(c3ncccn3)CC2)c2ccccc2)cc1 the Potency was inconclusive [inhibitor, full curve, poor fit].
With O=C1NC(c2cccnc2)Nc2sc3c(c21)CCCC3 (centres undefined) the Potency was “inactive”.
With O=C1NC(=O)C(=Cc2ccco2)C(=O)N1 the Potency was “inactive”.
For CCN(CC)C(=O)Oc1ccc2ccccc2c1Cl, the Potency was inconclusive [inhibitor, single point].
With O=C1NC(=O)C(=Cc2c(Cl)cccc2Cl)C(=O)N1 the Potency was “inactive”.
In the case of COc1cc(C[C@@H](C)N)c(OC)cc1I, the Potency is reported as inconclusive [inhibitor, partial curve, poor fit].
In the case of CCCC(=O)NC(Oc1ccc(OC)cc1)C(Cl)(Cl)Cl (centres undefined), the Potency is reported as inconclusive [inhibitor, partial curve, poor fit].
In the case of CCC1=Nc2cc(C(=O)N3CCC4(CC3)OCCO4)ccc2Sc2ccc(Br)cc21, the Potency is reported as inconclusive [inhibitor, partial curve, poor fit].
In the case of C/C(=N\Nc1ccccc1)c1c(O)n(Cc2ccccc2)c(=O)[nH]c1=O, the Potency is reported as inconclusive [inhibitor, full curve, poor fit].
In the case of CC(C)CCOC(=O)c1c(N)n(CC2CCCO2)c2nc3ccccc3nc12 (centres undefined), the Potency is reported as inconclusive [inhibitor, single point].
With CCc1cccc(NC(=O)C2CCN(S(=O)(=O)c3ccc(Br)s3)CC2)c1 the Potency was inconclusive [inhibitor, partial curve, poor fit].
O=C(NCc1c(-n2cccc2)sc2c1CCCC2)Nc1cccc(C(F)(F)F)c1 was tested, and the Potency was inconclusive [inhibitor, full curve].
For O=C(O)c1ccc(/C=C/c2nc3ccccc3c(=O)n2-c2ccc(Br)cc2)cc1, the Potency was inconclusive [inhibitor, partial curve, poor fit].
In the case of Cc1ccc(NC(=O)c2snnc2C)cc1Cl, the Potency is reported as “inactive”.
In the case of CCOc1cc2c(cc1OCC)-n1cccc1C(c1ccc(OC(F)F)cc1)NC2 (centres undefined), the Potency is reported as inconclusive [inhibitor, partial curve, poor fit].
Nc1ccc(C2(c3ccc(N)cc3)c3ccccc3-c3ccccc32)cc1 was tested, and the Potency was inconclusive [inhibitor, single point].
For CN1C2C=C(N(C(=O)c3ccc(Cl)cc3)c3ccccc3)CC1CC2 (centres undefined), the Potency was inconclusive [inhibitor, partial curve].
With O=C(COc1ccccc1)N1CCN(CC2CC=CCC2)CC1 (centres undefined) the Potency was inconclusive [inhibitor, partial curve, poor fit].
In the case of CCOC(=O)C1(CCc2ccccc2)CCN(Cc2ccco2)CC1, the Potency is reported as inconclusive [inhibitor, single point].
COc1ccccc1CCNC1CCCCCC1 was tested, and the Potency was inconclusive [inhibitor, partial curve, poor fit].
In the case of CCc1ccc(C(=O)NCc2ccc(Cl)cc2Cl)cc1, the Potency is reported as inconclusive [inhibitor, single point].
In the case of CCCOC(=O)c1c(N)n(Cc2cccs2)c2nc3ccccc3nc12, the Potency is reported as inconclusive [inhibitor, single point].
With CC1N(C)c2cc(NC(=O)c3ccco3)c(P(=O)(Nc3ccc([N+](=O)[O-])cc3)N3CCOCC3)cc2C1(C)C (centres undefined) the Potency was inconclusive [inhibitor, single point].
CN1C(=O)c2ccccc2Sc2ccc(NC(=O)N3CCN(c4ccccc4)CC3)cc21 was tested, and the Potency was inconclusive [inhibitor, single point].
In the case of NS(=O)(=O)OC(CCc1ccccc1)C(Cl)(Cl)Cl (centres undefined), the Potency is reported as inconclusive [inhibitor, single point].
For COC(=O)C(O)(c1ccc(NC(=S)NC(=O)c2ccc(Cl)cc2Cl)c(C)c1)C(F)(F)F (centres undefined), the Potency was inconclusive [inhibitor, partial curve, poor fit].
With COc1ccc(CN2CCCC(C(=O)c3ccccc3SC)C2)cc1O (centres undefined) the Potency was inconclusive [inhibitor, single point].
CCc1cc(-c2nnn(CCC3COCCO3)c2CC)cc(CC)c1-c1cn(Cc2ccc3ccccc3c2)nn1 (centres undefined) was tested, and the Potency was inconclusive [inhibitor, partial curve, poor fit].
Cc1cc(C)n(-c2ccc(NN=C(C#N)C#N)cc2)n1 was tested, and the Potency was inconclusive [inhibitor, full curve, poor fit].
CC1(Cc2ccc(C(F)(F)F)nc2)C(=O)Nc2cc(-c3ccccc3Cl)ccc21 (centres undefined) was tested, and the Potency was inconclusive [inhibitor, single point].
With CC(C)CN1CCN(Cc2ccccc2C(F)(F)F)CC1CCO (centres undefined) the Potency was inconclusive [inhibitor, partial curve].
